# Whole data set: some 33,000 sequences, median “E-score (dimensionless, -0.5 to 0.5)” near -0.058, cut for the highest 2% near 0.35. The list shows a part of the results.
# Tested on: MvaT
# Experiment: PBM 8-mer E-score (mean of HK and ME arrays) (E-score (dimensionless, -0.5 to 0.5)); higher = stronger relative binding preference; most listed sequences are background and not binding sites
# Summary of the method: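 Full-length P. aeruginosa MvaT, with glutathione S-transferase fused to its N-terminus (cloned into pTH6838 by isothermal assembly), was tested by protein binding microarray using a previously described protocol. Two universal double-stranded 60-mer arrays (ME and HK) were used, each with a constant 25-mer primer region and a variable 35-mer region covering all 8-mers. The rank-based 8-mer E-score (-0.5 to 0.5) is the mean of the two arrays, parsed with a custom Python script.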
row,Sequence,PBM 8-mer E-score
1,GTCGACGA,-0.125
2,ACGGCGAA,-0.0402
3,ATCTGTAC,0.0307
4,CATGAAAC,0.021
5,TACGTCCA,-0.0282
6,GGAGTGGA,-0.246
7,CAACCTAA,0.0563
8,GAAAGGCA,-0.212
9,AACGAGCG,-0.139
10,AAGTCGCG,-0.0326
11,ATTCTGCG,-0.0487
12,AATCTGGC,0.00801
13,GATGCTCA,-0.298
14,TCGGTTCA,-0.106
15,CACCTATC,-0.138
16,CTACCGGA,-0.0962
17,GGACAGTA,-0.0349
18,CACCTGAA,-0.101
19,CTGCTTTA,0.0194
20,ACAGTAAT,0.321
21,TAAAATAA,0.438
22,CGGACTTC,-0.019
23,GCTCGACC,-0.273
24,TGCTAACA,0.0452
25,CGTTTCAA,0.0183

row,Sequence,PBM 8-mer E-score
1,ATTGGATA,0.187
2,GTAGACCA,-0.112
3,AATATCGT,0.234
4,ACTGGGTA,0.0496
5,AAATTTCA,0.241
6,ACCTGGCA,-0.0572
7,ATCTTATG,0.0518
8,CGGGAGGA,-0.234
9,AGGGCAGG,-0.265
10,AGAATACA,0.0781
11,GATGGCGA,0.0338
12,CCGATTAC,-0.0227
13,AATTGAGA,0.0559
14,GAGGCCAA,-0.149
15,CAGGACAG,-0.206
16,ATCAAATC,-0.0337
17,AAGAAACA,0.16
18,TACCACTA,0.0507
19,GGGCACCC,-0.277
20,ACCAGTAT,0.036
21,CCACCCCA,-0.226
22,CGGACGCA,-0.201
23,ATATTACG,0.299
24,CGCCTGAG,-0.229
25,GAAATAAA,0.405

row,Sequence,PBM 8-mer E-score
1,CGACCGCG,-0.249
2,ACACACCT,-0.0695
3,AATGGTAA,0.226
4,CAAACTGA,0.0425
5,CATAAGTA,0.315
6,ACTATGAT,0.204
7,ACATTAGC,0.101
8,CATTAGAA,-0.0258
9,ACTTACTC,0.0724
10,ATGGGACA,-0.127
11,GCACGGCC,-0.199
12,ACCACGAG,-0.16
13,AGCTTGTC,-0.101
14,AATGATCG,-0.0474
15,ATTTATAG,0.342
16,CGCCTCGC,-0.193
17,CGCCCGTA,-0.132
18,AATTAAGA,0.277
19,GATCTTCA,-0.141
20,GCCTTTTA,0.14
21,ACTAAAAA,0.193
22,CAATGACA,-0.0266
23,CTACAGCA,-0.125
24,GAGACCAA,-0.0758
25,ACTAGTAC,0.114

row,Sequence,PBM 8-mer E-score
1,CTCGAAAG,-0.148
2,ACTCCCAA,0.0716
3,CGTTCTAG,-0.00357
4,CTAGACAG,-0.157
5,CCCTAATA,0.00517
6,GCTGTTGA,-0.137
7,GCATTCAA,0.15
8,GAGACATA,0.242
9,CGATCACA,-0.038
10,ACGATGAG,-0.215
11,GTGTGCAA,-0.034
12,AGAACGTC,-0.0779
13,GATTCTCA,-0.0981
14,AACGAGAT,0.0252
15,AGGCCCTC,-0.326
16,CCAAGTAC,0.055
17,AGGCATCG,-0.134
18,ACCTGCGC,-0.117
19,AGGGACGC,-0.271
20,GAACGTAA,0.0182
21,CCCTAACA,0.00516
22,AAGCTGTC,-0.0165
23,GAGTCTGC,-0.354
24,GTACTGGA,0.0295
25,ACGTTGGA,-0.144

row,Sequence,PBM 8-mer E-score
1,AGTCCCGC,-0.186
2,CAGCCTTC,-0.321
3,AACAGATT,0.0949
4,CGGGTTTC,-0.253
5,AAGCCGTG,-0.156
6,AGGCCTAC,-0.133
7,ATATCCTG,0.161
8,CGGTTAAC,0.012
9,CGGTATAA,0.296
10,TCCCAGCA,0.0141
11,CATTGTGG,-0.0595
12,ATTCATTA,0.219
13,CATCGTTA,0.113
14,GACCTCAC,-0.303
15,CTGTTGCA,-0.121
16,AGACTGGC,-0.0976
17,GCTATCTA,-0.193
18,ACCTCTTC,-0.242
19,AAAACGCC,-0.197
20,GAGGGCCA,-0.326
21,CGTTAAGC,-0.0162
22,GGCTTACC,-0.264
23,AAAACACT,0.0994
24,CTTCACTC,-0.239
25,CACTGAGC,-0.183

row,Sequence,PBM 8-mer E-score
1,GTGAGAAC,0.0401
2,ATTAATTC,0.415
3,AGGGATCA,-0.154
4,AGCAACCC,-0.0849
5,CCCTCAAA,-0.123
6,GTAAAGAC,-0.0319
7,AACGGGGT,-0.142
8,AAAGGACA,0.0226
9,CGGAAACC,-0.267
10,ACAAATGC,0.0069
11,AGAAAACA,0.182
12,TAGCCGCA,-0.0208
13,GTCATGGA,-0.101
14,AGACGTCG,-0.11
15,GACGGTAA,-0.0106
16,CACCTATA,0.122
17,ATCGGCCG,-0.185
18,CTCCAATA,0.202
19,CAATTAGG,0.106
20,ACAAAGGA,-0.104
21,ATGATTAA,0.307
22,TCACACGA,-0.168
23,ACAGACTG,-0.177
24,ACATTCGT,-0.0828
25,AGTATCGG,0.0692

row,Sequence,PBM 8-mer E-score
1,GAAGCGAA,-0.0527
2,TACACTGA,0.137
3,GCCCTGAC,-0.243
4,GAGTACTA,0.074
5,GAAATTTC,0.317
6,AGGACCGC,-0.29
7,GGGGGTAC,-0.292
8,AGCAAAGA,-0.0173
9,AGCTATAG,0.0139
10,CGACTACA,0.0423
11,AATTTCTC,0.125
12,TCCACCAA,0.0584
13,ATGGACTG,-0.179
14,CTGAAAGC,-0.148
15,CAGCTCGC,-0.107
16,AGTTGAAT,0.103
17,AAAGAGCT,-0.115
18,GCAAGCGA,-0.21
19,CGACAACC,-0.075
20,AAGGGATA,-0.0207
21,AACCAAGA,0.0134
22,GCCCAAAA,0.0513

# Source: the supplement of paper PMC4466236
